Test results as given in PubChem BioAssay AID1347073 (National Center for Advancing Translational Sciences (NCATS), 2019).
The whole screen tested about 45,000 compounds, of which about 200 (0.44%) were called active. Roughly 7% stayed inconclusive and do not appear here. The call rests on the fitted dose curve; in most records, active means well fitted activation curve with a large enough effect; inconclusive means small, poorly fitted or top-dose-only effect; inactive means no such curve, though single readings can be large or run the other way. The list shows a part of the results.

Experiment: qHTS of TDP-43 Inhibitors: NCGC Sytravon Library Screen; further: nearly all actives have a fitted effect of over 55% in size; on growth rescue (activation): 0% is about no effect
Settings: yeast TDP-43 toxicity rescue, BacTiter-Glo growth, 24 h; series mostly up to 46.1 µM; growth rescue (activation): at the top concentration
Method in brief: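 TDP-43-expressing yeast, pregrown in raffinose, seeded at OD600 0.02 in galactose medium with compound for 24 hr at 30 deg C. Growth read by BacTiter-Glo luminescence, so rescue of toxicity appears as activation.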
Potency means the concentration at half of the fitted maximal effect.

| SMILES | growth rescue (activation) | Potency |
| --- | --- | --- |
| Cc1ccc(C(C)C)c(OCC(=O)NNC(=O)Cc2ccc(S(=O)(=O)N3CCOCC3)s2)c1 | inactive: 18% | – |
| CN(CC(=O)NCc1ccncc1)S(=O)(=O)c1cc(Cl)ccc1Cl | inactive: -3.95% | – |
| O=C(CSc1nc2ccccc2o1)N/N=C/c1ccccc1 | inactive: -0.393% | – |
| O=C(CCCC(=O)Nc1cccnc1)Nc1cccnc1 | inactive: -16.5% | – |
| COc1cccc(NC(=O)c2cccc(N3C(=O)C4CCC(C)CC4C3=O)c2)c1 (configuration not stated) | inactive: 13.2% | – |
| O=C(COC(=O)CNC(=O)c1ccc(Cl)cc1Cl)NNC(=O)c1ccccc1F | inactive: -0.387% | – |
| O=C1Nc2ccccc2/C1=C/c1ccccc1F | inactive: 9.89% | – |
| c1ccc(-n2nnnc2Cc2nnnn2-c2ccccc2)cc1 | inactive: 8.9% | – |
| CCc1nc2ccc(C(=O)N3CCCC(C(N)=O)C3)cn2c1N(C=O)CC (configuration not stated) | inactive: 5.44% | – |
| COc1cccc(CN2CCC(C(=O)NC(C)c3cccc4ccccc34)CC2)c1 (configuration not stated) | inactive: -9.87% | – |
| COc1cc(Cl)c(C)cc1NC(C)C(=O)Nc1cc(C(F)(F)F)ccc1N1CCOCC1 (configuration not stated) | inactive: 11.4% | – |
| COc1cccc(/C=N/NC(=O)c2nc(-c3ccccc3)cc(-c3ccccc3)n2)c1O | – | active: 12.6 µM |
| COCCNC(=O)/C(C#N)=C/c1ccc(-c2ccc(OC)cc2[N+](=O)[O-])o1 | inactive: 10.8% | – |
| COc1ccc(CCNC(N)=S)cc1OC | inactive: -18.5% | – |
| CCOc1cnc(-c2c(-c3c(Cl)cccc3Cl)noc2C)o1 | inactive: -28% | – |
| Cn1ccc(-c2cc(C(=O)O)c3ccccc3n2)n1 | inactive: 12.2% | – |
| COc1ccccc1NC(=S)NC1CCCCC1 | inactive: 36.2% | – |
| CC1CCN(CCC(=O)Nc2nccs2)CC1 | inactive: 0.853% | – |
| CCc1ccccc1N(C(=O)c1snc(C(N)=O)c1N)C(C(=O)NCC1CCCO1)c1c[nH]c2ccccc12 (configuration not stated) | inactive: 15.8% | – |
| c1cc(-c2cnc3cccnn23)c2cccnc2c1 | inactive: -7.82% | – |
| CCc1ccc(N(CC(=O)NC2CC2)S(=O)(=O)c2ccc(C)cc2)cc1 | inactive: 13.6% | – |
| O=C(CSc1nnnn1-c1ccccc1)NCCCN1CCCC1=O | inactive: -1.57% | – |
| COc1cc(OC)cc(C(=O)Nc2sc3c(c2C(N)=O)CCC3)c1 | inactive: -77.1% | – |
| CC(=O)NS(=O)(=O)c1ccc(NC(=O)c2ccc(Cl)cc2[N+](=O)[O-])cc1 | inactive: 11% | – |
| CCn1c(C)nc2cc(C(=O)NNC(=S)NC(=O)c3ccccc3)ccc21 | inactive: -14.4% | – |
| COc1ccc(-c2nc3c4cnn(-c5ccccc5F)c4ncn3n2)cc1 | inactive: 3.95% | – |

| SMILES | growth rescue (activation) | Potency |
| --- | --- | --- |
| O=C(c1ccc(Cl)c(S(=O)(=O)N2CCCCCC2)c1)N1CCCC1 | inactive: 15.4% | – |
| CCOC(=O)C1=C(C)NC(SCC(N)=O)=C(C#N)C1c1cccs1 (configuration not stated) | inactive: -20.4% | – |
| CC(CC(=O)Nc1ccc2c(c1)c(=O)n(C)n2Cc1ccc(Cl)cc1)C(F)(F)F (configuration not stated) | inactive: 0.348% | – |
| CCN(CC)S(=O)(=O)c1ccc(-c2nnc(SCC(=O)N3c4ccccc4CC3C)n2CC)cc1 (configuration not stated) | inactive: -20.9% | – |
| Cc1ccc(C)c(S(=O)(=O)Nc2ccc(C(N)=O)cc2)c1 | inactive: -1.28% | – |
| COc1ccccc1-n1c(C)nc2cc(C(=O)NCc3ccc4c(c3)OCO4)ccc21 | inactive: -4.77% | – |
| COc1ccc(/C=N/Nc2cn[nH]c(=O)c2Cl)cc1 | inactive: 1.52% | – |
| CCN(Cc1ccccc1)C(=O)C(C)OC(=O)c1cc(S(=O)(=O)Nc2c(C)n(C)n(-c3ccccc3)c2=O)ccc1C (configuration not stated) | inactive: -1.85% | – |
| CCc1nc2ccc(C(=O)NCc3cccs3)cn2c1N(CC)CCOC | inactive: 16% | – |
| Cc1ccc2c(c1)cc(C(=O)N[C@@H](Cc1ccccc1)C(=O)O)n2C | inactive: -33% | – |
| O=C(COc1ccc2ccccc2c1)Nc1cccc(C(=O)Nc2ccccc2C(=O)O)c1 | inactive: -24.7% | – |
| CN(Cc1ccccc1)C(=O)C1CCCN(Cc2ccc(Cl)cc2)C1 (configuration not stated) | inactive: 1.13% | – |
| C=CCN(CC=C)C(=O)c1c(OC)cccc1OC | inactive: -13.7% | – |
| CN(Cc1ccno1)C(=O)CC1C(=O)NCCN1CC(c1ccccc1)c1ccccc1 (configuration not stated) | inactive: 3.48% | – |
| CC(=O)Nc1cccc(NS(=O)(=O)c2ccccc2[N+](=O)[O-])c1 | inactive: 1.06% | – |
| O=C(COC(=O)Cc1ccc(Cl)cc1)Nc1c(F)cccc1F | inactive: 1.59% | – |
| CCOC(=O)NC(=O)/C(N=Nc1cccc(C(F)(F)F)c1)=C(\C)O | inactive: 0.148% | – |
| COc1ccccc1OCCn1c(COc2cc(C)ccc2C)nc2ccccc21 | inactive: 24.6% | – |
| COc1cccc(CNC(=O)CNS(=O)(=O)c2ccc3nc(C)sc3c2)c1 | inactive: 6.03% | – |
| N#Cc1cc2c([nH]c1=S)CCCC2 | inactive: 0.808% | – |
| Clc1ccccc1Cc1noc(CN2CCN3CCCC3C2)n1 (configuration not stated) | inactive: 6.48% | – |
| CCc1nc2c(OCc3ccc(F)c(F)c3)cccn2c1N(C)C(=O)C(C)C | inactive: 8.8% | – |
| CCCNC(=O)C1(C)CCN(Cc2ccc(OC)c3ccccc23)C1 (configuration not stated) | inactive: 10.1% | – |
| COC(=O)c1ccc(C2/C(=C(\O)c3cccc(OC)c3)C(=O)C(=O)N2CCCN2CCOCC2)cc1 (configuration not stated) | inactive: 0.231% | – |
| O=C(CSc1nc2ccccc2c(=O)n1CCCO)N1CCc2ccccc21 | inactive: 1.52% | – |
| COc1cc(C(=O)NNC(=S)NC(=O)c2ccc(F)cc2)cc(OC)c1OC | inactive: 0.415% | – |
